# Laboratory results: the BET-seq Pho4 binding data (Le et al. 2018)
# The other results are listed elsewhere or left out. Values were computed here from the reads of four pooled replicates and scatter widely.
# Molecular target: T1, Pho4 (S. cerevisiae) (UniProt P07270)
# T1 sequence: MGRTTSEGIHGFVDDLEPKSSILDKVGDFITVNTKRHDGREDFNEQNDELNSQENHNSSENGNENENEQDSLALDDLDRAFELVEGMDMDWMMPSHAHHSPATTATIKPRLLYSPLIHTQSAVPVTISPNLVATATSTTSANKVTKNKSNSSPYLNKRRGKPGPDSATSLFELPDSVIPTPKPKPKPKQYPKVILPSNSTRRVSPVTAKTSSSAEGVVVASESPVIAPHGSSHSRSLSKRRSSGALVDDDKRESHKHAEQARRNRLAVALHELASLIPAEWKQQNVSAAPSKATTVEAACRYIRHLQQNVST
# Test: relative binding free energy (BET-seq); higher = weaker binding
# Settings: reference: library average
row,Sequence,relative binding free energy [kcal/mol]
1,CTTATCACGTGGGGGG,0.1
2,ATTTTCACGTGGCAGA,0.21
3,TTTGGCACGTGAAGCA,0.07
4,CGTGACACGTGTTAAG,0
5,GTTAACACGTGAGTGT,0.17
6,GGAGTCACGTGGCGAG,0.19
7,CTGCGCACGTGCGGTG,-0.14
8,TCAGTCACGTGGGGTC,0.04
9,TTGATCACGTGTTGAA,0.15
10,TGTATCACGTGCGAAT,0.29
11,ACTATCACGTGTGGGT,0.19
12,GAAGGCACGTGATGGT,0.14
13,TGAGACACGTGAGGTC,0.35
14,TTGATCACGTGAGGGT,0.37
15,TATGGCACGTGAGGAC,0.06
16,AGAAACACGTGGAGTG,-0.04
17,TCGTTCACGTGGTAAT,0.18
18,GATGTCACGTGTGTTA,0.03
19,TGTGACACGTGTAGCT,0.07
20,GGGGGCACGTGAGCTG,0.15
21,GGTATCACGTGGAGTA,0.07
22,TAATGCACGTGATATG,0.06
23,TAGGCCACGTGGATTT,-0.02
24,CGGGACACGTGTGGGC,0.23
25,TGTTTCACGTGTCCGT,0.33
26,GGGAGCACGTGCGATT,-0.05

row,Sequence,relative binding free energy [kcal/mol]
1,TTGAGCACGTGTGGAA,0.07
2,CTGCCCACGTGGGGGG,-0.3
3,GTGATCACGTGGATTT,0.13
4,CTGCACACGTGGGGAG,0.08
5,GTGACCACGTGTAGGG,-0.02
6,GGTAGCACGTGAGCGG,0.07
7,GTCAGCACGTGTAGTT,0.1
8,AAGGGCACGTGTTAAA,-0.19
9,GGTTGCACGTGCTTAT,-0.05
10,GGCATCACGTGTTGGT,0.1
11,GAGGGCACGTGAGTCG,0.23
12,GATGTCACGTGGCATG,0.01
13,AGAATCACGTGTGGAA,0.25
14,GGTCTCACGTGGGAAT,0.18
15,GCAGACACGTGTGGGG,0.23
16,TATGGCACGTGATGGT,0.07
17,AGAGGCACGTGTAAAG,-0.03
18,TAGTGCACGTGGTGTA,-0.03
19,ATGGGCACGTGCATAG,-0.26
20,AGGAGCACGTGGGTAG,-0.3
21,TTTTACACGTGACAGT,0.25
22,GTAGTCACGTGACAGG,0.26
23,ATCGACACGTGAGGTG,0.22
24,TTACACACGTGGTTTT,-0.07
25,TTTGGCACGTGGTGAT,-0.15
26,AATGTCACGTGGAGTA,0.03

row,Sequence,relative binding free energy [kcal/mol]
1,TGGTGCACGTGGTCAG,-0.01
2,TGGGCCACGTGTTTGG,-0.07
3,ACTTTCACGTGAGGGA,0.29
4,TGCTGCACGTGGTCTT,-0.17
5,TAGAACACGTGCGGGT,-0.09
6,TGTGGCACGTGTTTAT,0.1
7,TATATCACGTGTAGGC,0.25
8,ATGCGCACGTGGGGTT,-0.24
9,TTCATCACGTGTCGTG,0.24
10,ATTTACACGTGAGGAA,0.29
11,AGAGGCACGTGGCTGT,-0.27
12,TTCGGCACGTGTCTAG,0.12
13,TTTAACACGTGTCGTC,0.15
14,GTTGTCACGTGTACGG,0.27
15,TTGGACACGTGTGCAG,0.07
16,TAGGTCACGTGGATCT,0.03
17,ATGTGCACGTGGGATC,-0.11
18,GACGTCACGTGGGTTG,-0.12
19,CGGGACACGTGGGCTT,0.11
20,GAATTCACGTGTATGG,0.22
21,TCAGGCACGTGTGTGC,-0.06
22,CAAGGCACGTGGTTAT,-0.17
23,TCAAACACGTGTGTGT,-0.13
24,TGAGTCACGTGGGTAA,-0.07
25,TAAGTCACGTGAATGA,0.35
26,TTAAACACGTGGATGT,-0.09

row,Sequence,relative binding free energy [kcal/mol]
1,GTTTACACGTGCGGGT,0.17
2,TACGACACGTGGGTTT,-0.16
3,TCATACACGTGGTAGT,-0.01
4,GAGGTCACGTGAGTGG,0.37
5,ATCGACACGTGGTGTA,-0.06
6,GGCGTCACGTGTATTG,0.26
7,ACGTGCACGTGTTTAG,0.01
8,GTGTGCACGTGTCCGG,0.03
9,GGTGGCACGTGGATAA,0.06
10,GTACGCACGTGTTGGC,-0.03
11,CAGGGCACGTGAGGGT,0.12
12,GTTCACACGTGGGAGT,0.08
13,AAACGCACGTGTTTGT,-0.08
14,ATGGGCACGTGAAATT,0.32
15,GTGCACACGTGATTGT,0.24
16,ATTGACACGTGCGTAT,-0.13
17,TAGTTCACGTGACGGT,0.49
18,GTATTCACGTGGGCCT,0.22
19,CGTCTCACGTGGTTTT,0.24
20,CATATCACGTGCTTGT,0.26
21,GGAGTCACGTGAGGTC,0.25
22,ATCTTCACGTGTTTGG,0.25
23,GGCGACACGTGAGGGA,0.33
24,AGTATCACGTGATTTG,0.23
25,GGCATCACGTGGGCAG,-0.02
26,AGATTCACGTGTGAGA,0.41

row,Sequence,relative binding free energy [kcal/mol]
1,TAATGCACGTGGTCGT,-0.09
2,CTGCGCACGTGTGGGT,-0.19
3,TTAGGCACGTGTGTAC,-0.06
4,GGACTCACGTGAGGTG,0.33
5,TATAGCACGTGAGCAG,0.15
6,GGGTACACGTGGGCGG,-0.02
7,TTCGGCACGTGAGAAT,0.16
8,AATGTCACGTGTGATT,0.2
9,ATGTTCACGTGATAAG,0.29
10,TAATTCACGTGATATC,0.46
11,AGAGTCACGTGTTTGG,0.2
12,CCGGCCACGTGGGGGG,-0.27
13,AAGGGCACGTGTAAGG,-0.08
14,CTGGGCACGTGGAAGT,-0.2
15,TTCCGCACGTGGGTTG,-0.25
16,GCAGGCACGTGAGGGG,0.15
17,GGCTTCACGTGTTAGG,0.13
18,TGGTACACGTGGGGGG,-0.12
19,TGGTTCACGTGCTTTT,0.31
20,AATGGCACGTGTTCTG,-0.11
21,AGGGTCACGTGCTGTG,0.11
22,GGTGGCACGTGCTAGA,-0.2
23,ATTTGCACGTGAGGGA,0.21
24,TGAAACACGTGGGATT,-0.12
25,GGGGGCACGTGACTGT,0.07
26,AGTTACACGTGTTACT,0.21

row,Sequence,relative binding free energy [kcal/mol]
1,AGGGGCACGTGTTACA,-0.18
2,GTTACCACGTGATGTT,0.14
3,GGAGTCACGTGTATTG,0.03
4,GTAGTCACGTGGGGAA,0.01
5,GGGCGCACGTGTGGCG,-0.02
6,GTAAGCACGTGGTATA,-0.12
7,TCGGACACGTGGATGG,-0.02
8,CGTCTCACGTGATAGT,0.48
9,GGGGTCACGTGGTTTT,0.32
10,TACTGCACGTGTGATG,0.16
11,TTGGGCACGTGACACG,0.01
12,TAGAGCACGTGTGATG,-0.01
13,TGGCGCACGTGCTGAG,-0.04
14,TCATACACGTGTCGGG,0.31
15,AGGGACACGTGTAAAT,0.22
16,TGATACACGTGTCAGG,0.12
17,TAGGTCACGTGTCATT,0.21
18,GGTGACACGTGGAGTG,0.01
19,ATATTCACGTGGTAGC,0.17
20,CAGTTCACGTGAGTGT,0.39
21,CTAGTCACGTGTGAGG,0.15
22,TAGTTCACGTGAAGTA,0.29
23,ATTGCCACGTGTTATG,-0.12
24,ACTGTCACGTGCGTGT,-0.09
25,GTGCCCACGTGGGTTG,-0.24
26,GAGTACACGTGGGCAG,0

row,Sequence,relative binding free energy [kcal/mol]
1,AAAGGCACGTGTCAGT,-0.03
2,GGGATCACGTGTATAG,0.24
3,TAATTCACGTGTGGGC,0.31
4,GAGAGCACGTGAGTGA,0.36
5,AGGTGCACGTGGTGTG,-0.11
6,TTGCTCACGTGAGGAT,0.19
7,TGGTTCACGTGCGGAC,0.25
8,TGGGCCACGTGGTGTG,-0.12
9,TATATCACGTGCGATG,0.17
10,AGGGGCACGTGTCATG,-0.13
11,CTATACACGTGTAGTG,-0.01
12,GTGTCCACGTGAGTGA,0.15
13,GTTGTCACGTGAGGAT,0.36
14,TGAGTCACGTGGGTGT,-0.01
15,GGGGGCACGTGTTAGA,-0.13
16,AGTGGCACGTGGAGCA,-0.09
17,GATCGCACGTGTGGGT,-0.04
18,CAGGACACGTGTGTTG,0.15
19,CTGGTCACGTGCGTAG,0
20,TTTGACACGTGGCGTG,0.02
21,GTTGACACGTGGTTGT,-0.02
22,CAGGGCACGTGGATGG,-0.09
23,CGTGTCACGTGTGAAG,0.17
24,GGAGGCACGTGTTTAA,0.02
25,TTTTGCACGTGTATTA,0.1
26,AGGGCCACGTGGCTGG,-0.12

row,Sequence,relative binding free energy [kcal/mol]
1,ATTGTCACGTGAGAAA,0.24
2,AGAGTCACGTGTTGTC,0.19
3,TTCGTCACGTGCTTAG,0.14
4,GCTATCACGTGCGTTG,0.21
5,AGTTACACGTGAAGGG,0.34
6,TAGATCACGTGTACGT,0.16
7,TAGGTCACGTGAGTGC,0.27
8,AGTAGCACGTGTAGTT,-0.1
9,TTGGCCACGTGGGTTA,-0.14
10,CCGGTCACGTGGTGCG,0.03
11,TGACTCACGTGAGAGT,0.34
12,CTGGGCACGTGAGGGG,0.11
13,TGGTGCACGTGGCTAT,-0.12
14,GTATTCACGTGTTGCA,0.34
15,GGGGACACGTGGATGC,0.03
16,TTGCGCACGTGTTTAT,-0.1
17,AGGATCACGTGGTTGC,0.1
18,TTTTTCACGTGTACGG,0.41
19,GGGTGCACGTGCGATA,0.13
20,GATGTCACGTGAAGGC,0.36
21,TTGTGCACGTGCCTGT,-0.02
22,GTGATCACGTGTCGTA,0.16
23,CGTGCCACGTGTTTAG,-0.07
24,TATAGCACGTGGGTTC,-0.16
25,CTCGTCACGTGGGGGC,-0.09
26,GTGTTCACGTGGTCGA,0.11

row,Sequence,relative binding free energy [kcal/mol]
1,CCGGTCACGTGATGGT,0.22
2,AGCGGCACGTGCGGTG,-0.14
3,TTGACCACGTGTGTTC,0.1
4,AAACGCACGTGTTGGT,-0.17
5,ACATGCACGTGAGTGG,0
6,TTGGTCACGTGGCTGC,0.02
7,GGTTACACGTGTATAT,0.06
8,ACGTGCACGTGGATGT,-0.11
9,TGTTGCACGTGGCATG,-0.04
10,GGAAGCACGTGAGGAA,0.16
11,CTTCGCACGTGTGGGC,0
12,TGGATCACGTGGGCTA,-0.08
13,TCGAGCACGTGTTAGT,-0.08
14,TAATTCACGTGAGGAA,0.32
15,GTATTCACGTGAAATG,0.53
16,TAAGACACGTGGCTTT,-0.03
17,TATTGCACGTGTGTGG,0.09
18,TGGAACACGTGGTGCA,-0.04
19,GGTGGCACGTGTGATC,0.16
20,CCGGTCACGTGGGTAG,-0.2
21,ATAAGCACGTGTTGGA,-0.25
22,TGTATCACGTGAGCTA,0.27
